Data from patent publication US20250011379A1 (VERTEX PHARMACEUTICALS, published 2025).
Values belong to the binder of their own block, whether it stands above or below them.

Molecular target: T1, human C4b (human, UniProt P0C0L5 20-1744)
T1 chain 1: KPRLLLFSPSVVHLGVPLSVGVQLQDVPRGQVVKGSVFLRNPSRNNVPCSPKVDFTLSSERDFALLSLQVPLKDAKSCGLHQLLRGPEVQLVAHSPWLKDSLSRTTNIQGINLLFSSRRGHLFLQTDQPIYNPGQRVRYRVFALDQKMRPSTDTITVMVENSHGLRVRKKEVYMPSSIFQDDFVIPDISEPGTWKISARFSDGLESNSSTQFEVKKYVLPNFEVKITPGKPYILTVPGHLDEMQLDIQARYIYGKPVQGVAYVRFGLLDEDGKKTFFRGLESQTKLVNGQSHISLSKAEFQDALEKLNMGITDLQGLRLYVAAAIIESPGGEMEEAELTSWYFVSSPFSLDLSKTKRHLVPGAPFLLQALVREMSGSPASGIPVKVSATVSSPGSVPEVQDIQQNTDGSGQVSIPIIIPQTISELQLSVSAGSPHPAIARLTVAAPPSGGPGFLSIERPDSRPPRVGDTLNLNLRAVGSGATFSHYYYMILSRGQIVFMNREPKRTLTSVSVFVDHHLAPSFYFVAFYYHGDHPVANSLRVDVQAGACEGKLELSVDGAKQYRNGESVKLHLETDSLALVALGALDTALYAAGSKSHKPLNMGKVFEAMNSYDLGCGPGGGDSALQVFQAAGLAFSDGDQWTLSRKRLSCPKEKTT
T1 chain 2: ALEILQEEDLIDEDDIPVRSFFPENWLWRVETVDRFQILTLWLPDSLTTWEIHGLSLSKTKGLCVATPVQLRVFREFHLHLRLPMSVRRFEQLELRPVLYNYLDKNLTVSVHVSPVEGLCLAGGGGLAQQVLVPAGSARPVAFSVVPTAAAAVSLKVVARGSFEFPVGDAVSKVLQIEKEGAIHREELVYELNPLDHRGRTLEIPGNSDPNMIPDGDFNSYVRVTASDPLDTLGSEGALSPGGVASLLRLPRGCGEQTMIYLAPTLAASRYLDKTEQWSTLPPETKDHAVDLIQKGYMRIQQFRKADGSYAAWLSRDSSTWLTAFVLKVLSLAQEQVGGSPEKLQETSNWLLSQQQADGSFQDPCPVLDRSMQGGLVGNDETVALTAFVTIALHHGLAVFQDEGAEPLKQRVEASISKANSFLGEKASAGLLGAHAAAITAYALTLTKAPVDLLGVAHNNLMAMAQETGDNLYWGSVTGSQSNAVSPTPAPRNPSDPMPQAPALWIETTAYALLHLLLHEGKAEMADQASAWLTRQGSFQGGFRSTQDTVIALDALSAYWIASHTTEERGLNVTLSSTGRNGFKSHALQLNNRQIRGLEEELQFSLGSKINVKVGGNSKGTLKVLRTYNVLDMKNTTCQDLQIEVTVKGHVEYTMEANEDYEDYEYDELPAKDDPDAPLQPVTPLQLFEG
T1 chain 3: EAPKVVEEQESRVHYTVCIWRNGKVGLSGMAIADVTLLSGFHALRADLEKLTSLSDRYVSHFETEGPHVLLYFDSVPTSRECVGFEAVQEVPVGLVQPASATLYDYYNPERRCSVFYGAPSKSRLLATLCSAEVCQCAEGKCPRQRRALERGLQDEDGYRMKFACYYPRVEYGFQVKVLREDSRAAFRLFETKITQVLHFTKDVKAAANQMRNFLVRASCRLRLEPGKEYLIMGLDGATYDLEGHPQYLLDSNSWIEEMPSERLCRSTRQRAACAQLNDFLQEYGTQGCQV
Experiment: cell-based or functional assay

B1: Const. No. 5: HSA-GGSSGG-hCFI; L307W (enzyme)
chain: [not shown - about 600 residues]GGSSGGKVTYTSQEDLVEKKCLAKKYTHLSCDKVFCQPWQRCIEGTCVCKLPYQCPKNGTAVCATNRRSFPTYCQQKSLECLHPGTKFLNNGTCTAEGKFSVSLKHGNTDSEGIVEVKLVDQDKTMFICKSSWSMREANVACLDLGFQQGADTQRRFKLSDLSINSTECLHVHCRGLETSLAECTFTKRRTMGYQDFADVVCYTQKADSPMDDFFQCVNGKYISQMKACDGINDCGDQSDELCCKACQGKGFHCKSGVCIPSQYQCNGEVDCITGEDEVGCAGFASVTQEETEILTADMDAERRRIKSLLPKWSCGVKNRMHIRRKRIVGGKRAQLGDLPWQVAIKDASGITCGGIYIGGCWILTAAHCLRASKTHRYQIWTTVVDWIHPDLKRIVIEYVDRIIFHENYNAGTYQNDIALIEMKKDGNKKDCELPRSIPACVPWSPYLFQPNDTCIVSGWGREKDNERVFSLQWGEVKLISNCSKFYGNRFYEKEMECAGTYDGSIDACKGDSGGPLVCMDANNVTYVWGVVSWGENCGKPEFPGVYTKVANYFDWISYHVGRPFISQYNV
C4c EC50: 183 nM

B2: Const. No. 40: HSA-GGSSGG-hCFI; T59E (enzyme)
chain: [not shown - about 600 residues]GGSSGGKVTYTSQEDLVEKKCLAKKYTHLSCDKVFCQPWQRCIEGTCVCKLPYQCPKNGTAVCAENRRSFPTYCQQKSLECLHPGTKFLNNGTCTAEGKFSVSLKHGNTDSEGIVEVKLVDQDKTMFICKSSWSMREANVACLDLGFQQGADTQRRFKLSDLSINSTECLHVHCRGLETSLAECTFTKRRTMGYQDFADVVCYTQKADSPMDDFFQCVNGKYISQMKACDGINDCGDQSDELCCKACQGKGFHCKSGVCIPSQYQCNGEVDCITGEDEVGCAGFASVTQEETEILTADMDAERRRIKSLLPKLSCGVKNRMHIRRKRIVGGKRAQLGDLPWQVAIKDASGITCGGIYIGGCWILTAAHCLRASKTHRYQIWTTVVDWIHPDLKRIVIEYVDRIIFHENYNAGTYQNDIALIEMKKDGNKKDCELPRSIPACVPWSPYLFQPNDTCIVSGWGREKDNERVFSLQWGEVKLISNCSKFYGNRFYEKEMECAGTYDGSIDACKGDSGGPLVCMDANNVTYVWGVVSWGENCGKPEFPGVYTKVANYFDWISYHVGRPFISQYNV
C4c EC50: 215 nM

B3: Const. No. 29: HSA-GGSSGG-hCFI; E401F (enzyme)
chain: [not shown - about 600 residues]GGSSGGKVTYTSQEDLVEKKCLAKKYTHLSCDKVFCQPWQRCIEGTCVCKLPYQCPKNGTAVCATNRRSFPTYCQQKSLECLHPGTKFLNNGTCTAEGKFSVSLKHGNTDSEGIVEVKLVDQDKTMFICKSSWSMREANVACLDLGFQQGADTQRRFKLSDLSINSTECLHVHCRGLETSLAECTFTKRRTMGYQDFADVVCYTQKADSPMDDFFQCVNGKYISQMKACDGINDCGDQSDELCCKACQGKGFHCKSGVCIPSQYQCNGEVDCITGEDEVGCAGFASVTQEETEILTADMDAERRRIKSLLPKLSCGVKNRMHIRRKRIVGGKRAQLGDLPWQVAIKDASGITCGGIYIGGCWILTAAHCLRASKTHRYQIWTTVVDWIHPDLKRIVIEYVDRIIFHFNYNAGTYQNDIALIEMKKDGNKKDCELPRSIPACVPWSPYLFQPNDTCIVSGWGREKDNERVFSLQWGEVKLISNCSKFYGNRFYEKEMECAGTYDGSIDACKGDSGGPLVCMDANNVTYVWGVVSWGENCGKPEFPGVYTKVANYFDWISYHVGRPFISQYNV
C4c EC50: 210 nM

B5: Const. No. 33: HSA-GGSSGG-hCFI; H554F (enzyme)
chain: [not shown - about 600 residues]GGSSGGKVTYTSQEDLVEKKCLAKKYTHLSCDKVFCQPWQRCIEGTCVCKLPYQCPKNGTAVCATNRRSFPTYCQQKSLECLHPGTKFLNNGTCTAEGKFSVSLKHGNTDSEGIVEVKLVDQDKTMFICKSSWSMREANVACLDLGFQQGADTQRRFKLSDLSINSTECLHVHCRGLETSLAECTFTKRRTMGYQDFADVVCYTQKADSPMDDFFQCVNGKYISQMKACDGINDCGDQSDELCCKACQGKGFHCKSGVCIPSQYQCNGEVDCITGEDEVGCAGFASVTQEETEILTADMDAERRRIKSLLPKLSCGVKNRMHIRRKRIVGGKRAQLGDLPWQVAIKDASGITCGGIYIGGCWILTAAHCLRASKTHRYQIWTTVVDWIHPDLKRIVIEYVDRIIFHENYNAGTYQNDIALIEMKKDGNKKDCELPRSIPACVPWSPYLFQPNDTCIVSGWGREKDNERVFSLQWGEVKLISNCSKFYGNRFYEKEMECAGTYDGSIDACKGDSGGPLVCMDANNVTYVWGVVSWGENCGKPEFPGVYTKVANYFDWISYFVGRPFISQYNV
C4c EC50: 707 nM

More lines, now with the values ahead:

C4c EC50: 224 nM
B4: Const. No. 41: HSA-GGSSGG-hCFI; L73F (enzyme)
chain: [not shown - about 600 residues]GGSSGGKVTYTSQEDLVEKKCLAKKYTHLSCDKVFCQPWQRCIEGTCVCKLPYQCPKNGTAVCATNRRSFPTYCQQKSFECLHPGTKFLNNGTCTAEGKFSVSLKHGNTDSEGIVEVKLVDQDKTMFICKSSWSMREANVACLDLGFQQGADTQRRFKLSDLSINSTECLHVHCRGLETSLAECTFTKRRTMGYQDFADVVCYTQKADSPMDDFFQCVNGKYISQMKACDGINDCGDQSDELCCKACQGKGFHCKSGVCIPSQYQCNGEVDCITGEDEVGCAGFASVTQEETEILTADMDAERRRIKSLLPKLSCGVKNRMHIRRKRIVGGKRAQLGDLPWQVAIKDASGITCGGIYIGGCWILTAAHCLRASKTHRYQIWTTVVDWIHPDLKRIVIEYVDRIIFHENYNAGTYQNDIALIEMKKDGNKKDCELPRSIPACVPWSPYLFQPNDTCIVSGWGREKDNERVFSLQWGEVKLISNCSKFYGNRFYEKEMECAGTYDGSIDACKGDSGGPLVCMDANNVTYVWGVVSWGENCGKPEFPGVYTKVANYFDWISYHVGRPFISQYNV

C4c EC50: 16.6 nM
B6: Const. No. 70: HSA-GGSSGGSSGG-Rat CFI (enzyme)
chain: [not shown - about 600 residues]GGSSGGSSGGKNTPASGQPQEDLVEQKCLLKNYTHHSCDKVFCQPWQKCIEGTCACKLPYQCPKAGTPVCATNGRGYPTYCHLKSFECLHPEIKFSNNGTCTAEEKFNVSLIYGSTDTEGIVQVKLVDQDEKMFICKNSWSTVEANVACFDLGFPLGVRDIQGRFNIPVNHKINSTECLHVRCQGVETSLAECTFTKKSSKAPHGLAGVVCYTQDADFPTSQSFQCVNGKRIPQEKACDGVNDCGDQSDELCCKGCRGQAFLCKSGVCIPNQRKCNGEVDCITGEDESGCEEDKKNKIHKGLARSDQGGETEIETEETEMLTPDMDTERKRIKSLLPKLSCGVKRNTHIRRKRVVGGKPAEMGDYPWQVAIKDGDRITCGGIYIGGCWILTAAHCVRPSRYRNYQVWTSLLDWLKPNSQLAVQGVSRVVVHEKYNGATYQNDIALVEMKKHPGKKECELINSVPACVPWSPYLFQPNDRCIISGWGREKDNQKVYSLRWGEVDLIGNCSRFYPGRYYEKEMQCAGTSDGSIDACKGDSGGPLVCKDVNNVTYVWGIVSWGENCGKPEFPGVYTRVASYFDWISYYVGRPLVSQYNV

C4c EC50: 812 nM
B7: Const. No. 48: HSA-GGSSGG-hCFI; Δ(V565) > VG (enzyme)
chain: [not shown - about 600 residues]GGSSGGKVTYTSQEDLVEKKCLAKKYTHLSCDKVFCQPWQRCIEGTCVCKLPYQCPKNGTAVCATNRRSFPTYCQQKSLECLHPGTKFLNNGTCTAEGKFSVSLKHGNTDSEGIVEVKLVDQDKTMFICKSSWSMREANVACLDLGFQQGADTQRRFKLSDLSINSTECLHVHCRGLETSLAECTFTKRRTMGYQDFADVVCYTQKADSPMDDFFQCVNGKYISQMKACDGINDCGDQSDELCCKACQGKGFHCKSGVCIPSQYQCNGEVDCITGEDEVGCAGFASVTQEETEILTADMDAERRRIKSLLPKLSCGVKNRMHIRRKRIVGGKRAQLGDLPWQVAIKDASGITCGGIYIGGCWILTAAHCLRASKTHRYQIWTTVVDWIHPDLKRIVIEYVDRIIFHENYNAGTYQNDIALIEMKKDGNKKDCELPRSIPACVPWSPYLFQPNDTCIVSGWGREKDNERVFSLQWGEVKLISNCSKFYGNRFYEKEMECAGTYDGSIDACKGDSGGPLVCMDANNVTYVWGVVSWGENCGKPEFPGVYTKVANYFDWISYHVGRPFISQYNVG
